# Measurements taken from PubChem BioAssay AID624296 (National Center for Advancing Translational Sciences (NCATS), 2012).
# Where “and” joins values, the source holds several entries; their conditions need not be identical. Identical values can stand only once. Out of some 350,000 compounds screened, about 9,900 (2.8%) were called active. Inconclusive means that the source gave no clear call. Such entries were picked first, then a sample of the others. Calls come from the whole dose curve; as a rule, active = well fitted activation curve with a large enough effect; inconclusive = small, poorly fitted or top-dose-only effect; inactive = no such curve, though single readings can be large or run the other way. Where the call is inconclusive, the potency comes from a doubtful curve fit.
# Assay: A quantitative high throughput screen for small molecules that induce DNA re-replication in MCF 10a normal breast cells. For activity, positive = re-replication: % of control where 0% means no effect. Note: nearly all actives have a fitted effect of over 50% in size.
# Settings: MCF 10A DNA re-replication, Hoechst nuclear intensity, 48 h; activity, positive = re-replication: at 46.1 µM (top of the series)
# Potency is the fitted concentration of half-maximal effect; tags give direction and shape of the fitted curve.
SMILES,Potency,"activity, positive = re-replication"
COc1ccc(S(=O)(=O)N2CCCOC2CNC(=O)C(=O)NCCCN2CCOCC2)cc1C (centres undefined),"inconclusive: 0.58 µM [activator, full curve, poor fit]",–
CCOC(=O)/C=C1/SCC(=O)N1Cc1ccc(Br)cc1,"inconclusive: 29.1 µM [activator, single point]",–
Cc1cc(-c2ccc(C(C)C)c(S(=O)(=O)Nc3cc(C)on3)c2)on1,–,inactive: 0.59%
C=CCn1c(N)c(C(=O)N2CCN(C)CC2)sc1=S,–,inactive: 1.65%
CCCN(CCC)c1ccc(/C=C/c2ccc3cc(OCC)ccc3n2)cc1,–,inconclusive: 148% [activator]
Cc1cccc(NC(=O)CN2C(=O)S/C(=C\c3cc(C)n(C)c3C)C2=O)c1,"inconclusive: 16.4 µM [activator, single point]",–
Cc1cccc(N=C2NN=C(c3c[nH]c4ccccc34)CS2)c1,"inconclusive: 20.6 µM [activator, single point]",–
CCCC(=O)C1=C(O)C(C(=O)OC)C(C)(C)CC1=Nc1cccc([N+](=O)[O-])c1 (centres undefined),–,inactive: 1.76%
Cc1ccc(NC(=S)N(CCN(C)C)C(C)c2ccco2)c(C)c1 (centres undefined),–,inactive: 0.431%
BrC(=C\c1ccccc1)/C=N/N1CCN(c2ccccc2)CC1,"inconclusive: 20.6 µM [activator, single point]",–
Cc1cccc(NC(=O)CSc2nnc(CNC(=O)c3ccco3)o2)c1,–,inactive: -5.85%
O=c1[nH]c(=S)[nH]c2c1CN(Cc1ccc(F)cc1)CC2,–,inactive: 2.46%
O=C(NCCN1C(=O)S/C(=C\c2ccc(Cl)c(Cl)c2)C1=O)c1cnccn1,"inconclusive: 9.2 µM [activator, partial curve]",–
CC(=O)c1c(C)n([O-])c2cc(F)c(F)cc2[n+]1=O,"inconclusive: 18.4 µM [activator, single point]",–
Cc1c(C(=O)N(Cc2ccco2)Cc2cccs2)oc2ccccc12,"inconclusive: 20.6 µM [activator, partial curve, poor fit]",–
N#Cc1c(-c2ccco2)ccn(Cc2ccc(F)cc2)c1=O,"inconclusive: 16.4 µM [activator, partial curve, poor fit]",–
C1CCC(C(CC2CCCCN2)C2CCCCC2)CC1 (centres undefined),"inconclusive: 13.3 µM [activator, partial curve, poor fit] and inconclusive: 18.4 µM [activator, single point] and inconclusive: 18.4 µM [activator, partial curve, poor fit]",–
FC(F)(F)Sc1ccc(NC(=S)NCc2ccccc2)cc1,"inconclusive: 18.4 µM [activator, single point]",–
O=C(CCNc1ccc(F)cc1)c1ccco1,"inconclusive: 29.1 µM [activator, single point]",–
COc1ccc(-c2cc(C(=O)N3CCN(c4cccc(C)c4C)CC3)c3ccccc3n2)cc1OC,"inconclusive: 14.6 µM [activator, partial curve]",–
COc1cc(CC(=O)OCC(=O)c2ccc[nH]2)cc(OC)c1OC,"inconclusive: 2.91 µM [activator, single point]",–
COC(=O)c1ccc(NC(=O)CN(Cc2ccc(Cl)cc2)S(C)(=O)=O)cc1,"inconclusive: 0.259 µM [activator, full curve, poor fit]",–
Cc1ccc(NC(=O)C2CCN(S(=O)(=O)c3cnc[nH]3)CC2)cc1C,–,inactive: -48.3%

SMILES,Potency,"activity, positive = re-replication"
N#CC1=C(S)N(c2ccccc2)C(c2ccc(-c3cc(Cl)ccc3Cl)o2)NC1=O (centres undefined),"inactive and inconclusive: 29.1 µM [activator, single point]",–
Cc1cccc(CCNS(=O)(=O)c2ccc(S(=O)(=O)N3CCC(C)CC3)cc2)c1,"inconclusive: 29.1 µM [activator, single point]",–
Cc1ccc(-c2cc(C(=O)O)c3cc(Br)ccc3n2)o1,"inconclusive: 2.31 µM [activator, partial curve]",–
O=S(=O)(Nc1ccc(S(=O)(=O)N2CCCCC2)cc1)c1ccc(Br)s1,"inconclusive: 7.31 µM [activator, partial curve, poor fit]",–
CC(=NNC(=O)c1ccncc1)c1cccc(Cl)c1,–,inactive: 0.912%
CCOc1ccc(N(CC(=O)NCc2ccc(F)cc2)C(=O)c2snc(C(N)=O)c2N)cc1,"inconclusive: 29.1 µM [activator, single point]",–
CCOC(=O)C1CCN(C(=O)Cn2cnc3sc(C)c(S(=O)(=O)N4CCOCC4)c3c2=O)CC1,–,inactive: -0.225%
COc1ccccc1CNC(=O)CS(=O)(=O)Cc1ccccc1,–,inactive: 0.291%
CC(=O)Nc1ccc(NC(=O)CSCc2ccccc2Cl)cc1,–,inactive: 8.67%
COc1cc(OC)c(CN2CCC(Cc3ccccc3)CC2)cc1Br,active: 11.6 µM,–
CCN1CCN(CC(=O)Nc2sc3c(c2C#N)CCC(C)C3)CC1 (centres undefined),"inconclusive: 1 µM [activator, full curve]",–
Cc1nnnn1/C(=C\c1ccccc1)C(=O)OCC(=O)NC1CCCCC1,"inconclusive: 23.1 µM [activator, single point]",–
CC1(C)SC(=S)N(/N=C/c2ccc(O)cc2)C1N(O)C(=O)Nc1ccc([N+](=O)[O-])cc1 (centres undefined),–,inactive: 17.1%
COc1ccc(CCNC(=O)C2CCN(Cc3nc(-c4cccc(Cl)c4)oc3C)CC2)cc1OC,–,inactive: 17.8%
Cc1ccc(C(CC(=O)N2CCOCC2)c2ccco2)cc1 (centres undefined),"inconclusive: 23.1 µM [activator, partial curve, poor fit]",–
c1ccc(-n2cc(CN3CCCC3)c(-c3ccc4c(c3)OCO4)n2)cc1,–,inactive: 0.0222%
O=C(NCc1ccc(F)cc1)c1c2c(nc3ccccc13)CCC2,–,inactive: -2.84%
CC(Oc1ccc(Br)cc1)C(=O)Nc1ccc(S(=O)(=O)N(C)C2CCN(C)CC2)cc1 (centres undefined),"inconclusive: 23.1 µM [activator, single point]",–
COc1ccc(C(=O)c2cc([N+](=O)[O-])ccc2N2CCCC2)cc1,active: 1.46 µM,–
CCN1C(=O)C(O)(C2COC(C)(C)CC2=O)c2ccccc21 (centres undefined),"inconclusive: 20.6 µM [activator, single point]",–
COc1cc(Cl)ccc1OCc1cc(C(=O)N2C[C@]3(C)C[C@H]2CC(C)(C)C3)no1,active: 20.6 µM,–
COc1ccc(CCNC(=O)C(=O)NCC2CCCN2S(=O)(=O)c2ccccc2)cc1OC (centres undefined),"inconclusive: 16.4 µM [activator, single point]",–
O=C(Nc1cc(Cl)ccc1O)c1snnc1-c1ccccc1,"inconclusive: 10.3 µM [activator, partial curve]",–

SMILES,Potency,"activity, positive = re-replication"
Cc1nnc(NN2CCOCC2)[nH]c1=O,"inconclusive: 4.11 µM [activator, partial curve, poor fit]",–
COc1ccc(OC)c(/C=N/NC(=O)c2cc[n+](CC(=O)c3ccccc3)cc2)c1,"inconclusive: 25.9 µM [activator, single point]",–
O=C(Nc1ccccc1Br)c1c(F)cccc1Cl,"inconclusive: 0.0046 µM [activator, full curve, poor fit]",–
Cc1nc(NC(=O)c2ccc(Cl)cc2)sc1Cc1ccc2c(c1)OCO2,active: 2.91 µM,–
O=C(CCC(=O)OCC(=O)c1ccccc1)Nc1cccc2cccnc12,active: 16.4 µM,–
COc1cc(C(c2c(C)[nH][nH]c2=O)c2c(C)[nH][nH]c2=O)ccc1OS(=O)(=O)c1ccccc1,"inconclusive: 29.1 µM [activator, single point]",–
COc1cccc(CNCCc2c[nH]c3ccccc23)c1OCc1ccccc1F,"inconclusive: 5.17 µM [activator, full curve]",–
Cc1cc(Cl)ccc1NC(=O)C1CCN(S(C)(=O)=O)CC1,–,inactive: -23.9%
CC(/C=N/n1c(-c2ccc(C)cc2)n[nH]c1=S)=C\c1ccco1,"inconclusive: 18.4 µM [activator, single point]",–
CC(C)CN(CCCNC(=O)CN1C(=O)COc2ccc(S(=O)(=O)N3CCCC3)cc21)CC(C)C,"inconclusive: 6.51 µM [activator, partial curve, poor fit]",–
Cc1ccc(CCc2nnc(SCC(=O)Nc3cccc(Cl)c3)n2-c2ccccc2)o1,"inconclusive: 29.1 µM [activator, partial curve, poor fit]",–
Cc1cnc(NC(=O)c2cc(S(=O)(=O)N(C)C)ccc2N2CCCC2)s1,active: 6.51 µM,–
COc1ccc(C(=O)OCC(=O)N2CCN(C(=O)c3ccco3)CC2)cc1OC,–,inactive: -8.81%
O=C1CCCC(=O)N1c1ccc(F)cc1,"inconclusive: 6.51 µM [activator, single point]",–
O=C1c2ccccc2C2=Nc3ccccc3SC(c3cccc(F)c3)C12 (centres undefined),active: 11.6 µM,–
O=C1Cc2cc(NS(=O)(=O)c3ccc([N+](=O)[O-])cc3)cc3c2N1CCC3,–,inactive: -1.02%
COc1ccc(C)cc1Nc1nc(C)nc2c1oc1ccccc12,"inconclusive: 23.1 µM [activator, single point]",–
Fc1ccc(NC(=S)NCc2ccccc2Cl)cc1,–,inactive: 5.96%
O=C(NCCCN1CCN(CCCNC(=O)c2cccc(Cl)c2)CC1)c1cccc(Cl)c1,"inconclusive: 18.4 µM [activator, partial curve, poor fit]",–
Cc1cc(C)cc(N(C(=O)Cc2cccs2)C(C(=O)NC2CCCCC2)c2ccccn2)c1 (centres undefined),–,inactive: 8.61%
Fc1ccc(-c2csc3ncnc(Cl)c23)cc1,"inconclusive: 20.6 µM [activator, partial curve, poor fit]",–
O=c1[nH]c(/C=C/c2ccccc2OC(F)F)nc2c1cnn2-c1ccccc1,active: 14.6 µM,–
O=C(NN=C1CCCC1)c1n[nH]c2c1CCCC2,"inconclusive: 20.6 µM [activator, partial curve, poor fit]",–
